Source: the supplement of paper PMC8728848
The list shows a part of the results.

Legend:
Experiment in all cases: glycan array binding signal (z-score within array); higher = stronger binding
Conditions in all cases: glycan notation: IUPAC condensed, linker removed
[1] = target: Neu5Ac(a2-3)Gal(b1-3)[Fuc(a1-4)]GlcNAc
Summary of the method: (§1)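 Glycan array binding is given as a within-array Z-score, which can be read as non-binding when negative. The arrays, 3228 of them, came from the Consortium for Functional Glycomics database and were retained only where the protein sequence was available. Z-scores were averaged across arrays of the same protein sequence at different concentrations or buffers and across linkers.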

[2] = target: Neu5Ac(a2-3)Gal(b1-3)[Fuc(a1-4)]GlcNAc(b1-3)Gal(b1-3)[Fuc(a1-4)]GlcNAc
Summary of the method: as §1

[3] = target: Neu5Ac(a2-3)Gal(b1-3)[Fuc(a1-4)]GlcNAc(b1-3)Gal(b1-4)[Fuc(a1-3)]GlcNAc
Summary of the method: as §1

[4] = target: Neu5Ac(a2-3)Gal(b1-3)[GlcNAc(b1-6)]GalNAc
Summary of the method: as §1

[5] = target: Neu5Ac(a2-3)Gal(b1-3)[Neu5Ac(a2-6)]GalNAc
Summary of the method: as §1

[6] = target: Neu5Ac(a2-3)Gal(b1-3)[Neu5Ac(a2-6)]GlcNAc(b1-3)[Fuc(a1-3)[Gal(b1-4)]GlcNAc(b1-6)]Gal(b1-4)Glc
Summary of the method: as §1

[7] = target: Neu5Ac(a2-3)Gal(b1-3)]Neu5Ac(a2-3)Gal(b1-4)]GlcNAc
Summary of the method: as §1

Neu5Ac(a2-3)Gal(b1-4)Glc = target: Neu5Ac(a2-3)Gal(b1-4)Glc
Summary of the method: as §1

[8] = target: Neu5Ac(a2-3)Gal(b1-4)GlcNAc
Summary of the method: as §1

[9] = target: Neu5Ac(a2-3)Gal(b1-4)GlcNAc(b1-2)Man
Summary of the method: as §1

[10] = target: Neu5Ac(a2-3)Gal(b1-4)GlcNAc(b1-2)Man(a1-3)[GlcNAc(b1-4)][Neu5Ac(a2-3)Gal(b1-4)GlcNAc(b1-2)Man(a1-6)]Man(b1-4)GlcNAc(b1-4)GlcNAc
Summary of the method: as §1

[11] = target: Neu5Ac(a2-3)Gal(b1-4)GlcNAc(b1-2)Man(a1-3)[Neu5Ac(a2-3)Gal(b1-4)GlcNAc(b1-2)Man(a1-6)]Man(b1-4)GlcNAc(b1-4)GlcNAc
Summary of the method: as §1

[12] = target: Neu5Ac(a2-3)Gal(b1-4)GlcNAc(b1-2)Man(a1-3)[Neu5Ac(a2-3)Gal(b1-4)GlcNAc(b1-2)Man(a1-6)]Man(b1-4)GlcNAc(b1-4)[Fuc(a1-6)]GlcNAc
Summary of the method: as §1

[13] = target: Neu5Ac(a2-3)Gal(b1-4)GlcNAc(b1-2)Man(a1-3)[Neu5Ac(a2-6)Gal(b1-4)GlcNAc(b1-2)Man(a1-6)]Man(b1-4)GlcNAc(b1-4)GlcNAc
Summary of the method: as §1

[14] = target: Neu5Ac(a2-3)Gal(b1-4)GlcNAc(b1-2)[Neu5Ac(a2-3)Gal(b1-4)GlcNAc(b1-4)]Man(a1-3)[GlcNAc(b1-4)][Neu5Ac(a2-3)Gal(b1-4)GlcNAc(b1-2)[Neu5Ac(a2-3)Gal(b1-4)GlcNAc(b1-6)]Man(a1-6)]Man(b1-4)GlcNAc(b1-4)GlcNAc
Summary of the method: as §1

[15] = target: Neu5Ac(a2-3)Gal(b1-4)GlcNAc(b1-2)[Neu5Ac(a2-3)Gal(b1-4)GlcNAc(b1-4)]Man(a1-3)[GlcNAc(b1-4)][Neu5Ac(a2-3)Gal(b1-4)GlcNAc(b1-4)Man(a1-6)]Man(b1-4)GlcNAc(b1-4)GlcNAc
Summary of the method: as §1

[16] = target: Neu5Ac(a2-3)Gal(b1-4)GlcNAc(b1-2)[Neu5Ac(a2-3)Gal(b1-4)GlcNAc(b1-6)]Man(a1-6)[Neu5Ac(a2-3)Gal(b1-4)GlcNAc(b1-2)Man(a1-3)]Man(b1-4)GlcNAc(b1-4)GlcNAc
Summary of the method: as §1

[17] = target: Neu5Ac(a2-3)Gal(b1-4)GlcNAc(b1-2)[Neu5Ac(a2-3)Gal(b1-4)GlcNAc(b1-6)]Man(a1-6)[Neu5Ac(a2-3)Gal(b1-4)GlcNAc(b1-2)Man(a1-3)][GlcNAc(b1-4)]Man(b1-4)GlcNAc(b1-4)GlcNAc
Summary of the method: as §1

[18] = target: Neu5Ac(a2-3)Gal(b1-4)GlcNAc(b1-3)Gal
Summary of the method: as §1

[19] = target: Neu5Ac(a2-3)Gal(b1-4)GlcNAc(b1-3)Gal(b1-3)GlcNAc
Summary of the method: as §1

[20] = target: Neu5Ac(a2-3)Gal(b1-4)GlcNAc(b1-3)Gal(b1-4)GlcNAc
Summary of the method: as §1

[21] = target: Neu5Ac(a2-3)Gal(b1-4)GlcNAc(b1-3)Gal(b1-4)GlcNAc(b1-2)Man(a1-3)[Neu5Ac(a2-3)Gal(b1-4)GlcNAc(b1-3)Gal(b1-4)GlcNAc(b1-2)Man(a1-6)]Man(b1-4)GlcNAc(b1-4)GlcNAc
Summary of the method: as §1

[22] = target: Neu5Ac(a2-3)Gal(b1-4)GlcNAc(b1-3)Gal(b1-4)GlcNAc(b1-3)Gal(b1-4)GlcNAc
Summary of the method: as §1

[23] = target: Neu5Ac(a2-3)Gal(b1-4)GlcNAc(b1-3)Gal(b1-4)GlcNAc(b1-3)Gal(b1-4)GlcNAc(b1-2)Man(a1-3)[Neu5Ac(a2-3)Gal(b1-4)GlcNAc(b1-3)Gal(b1-4)GlcNAc(b1-3)Gal(b1-4)GlcNAc(b1-2)Man(a1-6)]GalNAc
Summary of the method: as §1

[24] = target: Neu5Ac(a2-3)Gal(b1-4)GlcNAc(b1-3)Gal(b1-4)GlcNAc(b1-3)GalNAc
Summary of the method: as §1

[25] = target: Neu5Ac(a2-3)Gal(b1-4)GlcNAc(b1-3)Gal(b1-4)GlcNAc(b1-3)[Neu5Ac(a2-3)Gal(b1-4)GlcNAc(b1-3)Gal(b1-4)GlcNAc(b1-6)]GalNAc
Summary of the method: as §1

[26] = target: Neu5Ac(a2-3)Gal(b1-4)GlcNAc(b1-3)Gal(b1-4)GlcNAc(b1-6)[Gal(b1-3)]GalNAc
Summary of the method: as §1

[27] = target: Neu5Ac(a2-3)Gal(b1-4)GlcNAc(b1-3)Gal(b1-4)[Fuc(a1-3)]GlcNAc
Summary of the method: as §1

[28] = target: Neu5Ac(a2-3)Gal(b1-4)GlcNAc(b1-3)GalNAc
Summary of the method: as §1

[29] = target: Neu5Ac(a2-3)Gal(b1-4)GlcNAc(b1-3)[Neu5Ac(a2-3)Gal(b1-4)GlcNAc(b1-6)]GalNAc
Summary of the method: as §1

B1: PX9961U-pdi-543-24-543 (Parabacteroides distasonis) (protein)
chain: EEPVGEFLPGQVESEENIEGIVTGAYAVLDGYYASDAINSGCSNWQFGDVVSDDAYKGGGGTGDQNQIHLMEIFNANPTGIDFEARWAALYEGIKRCNQAIRLLNGSEVKNKEQRLAEMRFLRGHYYFNLKIIYNQIPWIDETLVDPNEYNKKSNIEFSSDQLWEKILEEFSAAYKVLPESQADYGRPTKMAARAYMAKVYLYQSKWKECLEACDEVIQSGKYELFPDFRNVFLPENDNCSEIIFAIQLSINDGSPNNENGSYGDRLLPPGGPYPVYGFLRPTQNLVNAYKTDVKGLPYNDGKDVSENDYVDVRLDHTLARPNIPFMDVQLYDWTPREASVYGPYSPKKRLVSLNSTYYSPIWPYVNALNFYVIRYADLLLWRAEAAIETGDLETGRKYINMIRERAKNTQHVKTMDQSQDAANYKVGVYDEPFKSKNEAVQALRMERRLEMAHEGIRFFDLVRWGVADEVINAYIAKEKVFRSHLQNAHFVKGKHEYFPIPQSMIDICGTEVMKQNPGY
- glycan array binding signal (z-score) [1]: -0.398
- glycan array binding signal (z-score) [2]: -0.321
- glycan array binding signal (z-score) [3]: -0.185
- glycan array binding signal (z-score) [4]: -0.378
- glycan array binding signal (z-score) [5]: -0.325
- glycan array binding signal (z-score) [6]: -0.31
- glycan array binding signal (z-score) [7]: -0.399
- glycan array binding signal (z-score) (Neu5Ac(a2-3)Gal(b1-4)Glc): -0.368
- glycan array binding signal (z-score) [8]: -0.314
- glycan array binding signal (z-score) [9]: -0.278
- glycan array binding signal (z-score) [10]: -0.394
- glycan array binding signal (z-score) [11]: -0.337
- glycan array binding signal (z-score) [12]: -0.23
- glycan array binding signal (z-score) [13]: -0.285
- glycan array binding signal (z-score) [14]: -0.408
- glycan array binding signal (z-score) [15]: -0.373
- glycan array binding signal (z-score) [16]: -0.223
- glycan array binding signal (z-score) [17]: -0.431
- glycan array binding signal (z-score) [18]: -0.257
- glycan array binding signal (z-score) [19]: -0.419
- glycan array binding signal (z-score) [20]: -0.403
- glycan array binding signal (z-score) [21]: -0.056
- glycan array binding signal (z-score) [22]: -0.466
- glycan array binding signal (z-score) [23]: -0.211
- glycan array binding signal (z-score) [24]: -0.376
- glycan array binding signal (z-score) [25]: 0.127
- glycan array binding signal (z-score) [26]: -0.248
- glycan array binding signal (z-score) [27]: -0.34
- glycan array binding signal (z-score) [28]: -0.341
- glycan array binding signal (z-score) [29]: -0.48
